Measurements: PubChem BioAssay AID1345082 (National Center for Advancing Translational Sciences (NCATS), 2018)
Values joined by “and” are separate entries in the source; they are usually repeats but may differ in a detail not shown here. Identical values can stand only once. Among all 94,000 compounds or so, about 4,000 (4.3%) were called active. This list was built around the results that the source calls inconclusive (neither active nor inactive); the mix of calls is not that of the screen. Calls come from the whole dose curve; as a rule, active = well fitted inhibition curve with a large enough effect; inconclusive = small, poorly fitted or top-dose-only effect; inactive = no such curve, though single readings can be large or run the other way. Potencies of inconclusive entries are doubtful fits and often do not repeat.
Potency is the fitted concentration of half-maximal effect; tags give direction and shape of the fitted curve.

Experiment: Cytotoxic Profiling in NIH 3T3 Cell Line of Diverse Libraries Using Quantitative High-Throughput Screening; note: nearly all actives have a fitted effect of over 55% in size
Details: NIH 3T3 viability, CellTiter-Glo ATP luminescence, 48-72 h; series mostly up to 96.7 µM
Outline: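 NIH 3T3 cells at 400 cells/well received 23 nL of compound by pintool and were incubated 48 or 72 h at 37 °C. Viability was read as ATP-coupled CellTiter-Glo luminescence.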
With Cc1nc(C(=O)N2CCC(c3nnc(Cn4cccn4)n3C)CC2)cs1 the Potency was “inactive”.
In the case of O=C(Nc1cnc(-c2ccc(Cl)cc2)nc1)c1ccc(F)c(F)c1, the Potency is reported as “inactive”.
With Nc1ncccc1CN1CCc2ncc(C(=O)NCc3ccccc3)n2CC1 the Potency was inconclusive: 89.1 µM [inhibitor, partial curve, poor fit].
With COc1ccc(CN[C@H]2[C@H](O)[C@@H](N3CCN(c4ccccc4OC)CC3)[C@@H]3OC[C@H]2O3)cc1 the Potency was inconclusive: 100 µM [inhibitor, partial curve, poor fit].
In the case of COc1ccc(CN2CCC3(COC(=O)N3Cc3ccccn3)C2)cn1 (configuration not stated), the Potency is reported as inconclusive: 112 µM [inhibitor, partial curve, poor fit].
In the case of O=[S+]([O-])(Nc1ccccc1)c1ccc2c(c1)OCCN(Cc1ccccc1F)C2, the Potency is reported as inconclusive: 56.2 µM [inhibitor, partial curve, poor fit].
With O=C(NCc1cccs1)c1ccc2oc(-c3ccncc3)nc2c1 the Potency was inconclusive: 35.5 µM [inhibitor, partial curve].
For CCN1c2cc(C(=O)Nc3cc(C)ccc3OC)ccc2C(=O)N2CCCCCC21 (configuration not stated), the Potency was inconclusive: 50.1 µM [inhibitor, partial curve, poor fit].
In the case of O=C(c1ccc(F)cc1)N1CC(Oc2ccc(-c3nc(-c4ccccc4)no3)cc2)C1, the Potency is reported as “inactive”.
For O=C(NCc1ccc(F)c(F)c1)c1ccc2nnc(-c3cccc(C(F)(F)F)c3)n2c1, the Potency was active: 25.1 µM.
With Cc1ccc(CNC(=O)c2ccc3c(c2)n(Cc2ccccc2)c(=O)c2ccnn23)o1 the Potency was inconclusive: 50.1 µM [inhibitor, partial curve, poor fit].
For CN(C1CCc2ccccc21)S(C)(=O)=O (configuration not stated), the Potency was “inactive”.
In the case of COc1cccc(-c2ccc(CN3CCCC(NC(=O)C(C)(C)C)C3)cc2)c1 (configuration not stated), the Potency is reported as inconclusive: 50.1 µM [inhibitor, partial curve, poor fit].
With O=C(c1ccc2nc(-c3ccc(F)cc3)cn2c1)N1C[C@@H]2CCCN[C@@H]2C1 the Potency was inconclusive: 79.4 µM [inhibitor, single point].
With Cn1nc(C(=O)N2CCC(OCCOc3ccccc3)CC2)c2ccccc21 the Potency was inconclusive: 50.1 µM [inhibitor, partial curve, poor fit].
For COc1ccccc1NC(=O)c1cc2c(n1C)CCN(Cc1ccc(F)cc1)C2, the Potency was inconclusive: 44.7 µM [inhibitor, partial curve, poor fit].
For O=C(NC1CCCCC1)c1ccc2nnc(-c3cccc(C(F)(F)F)c3)n2c1, the Potency was inconclusive: 35.5 µM [inhibitor, partial curve].
With Cc1noc2c(-c3ccc4c(ccn4C)c3)cc(-c3cccnc3)nc12 the Potency was inconclusive: 11.2 µM [inhibitor, full curve, poor fit].
For O=C(c1ccc(Cn2ccnc2)o1)N1CCC2(CC1)NCCc1c2[nH]c2ccccc12, the Potency was inconclusive: 50.1 µM [inhibitor, partial curve, poor fit].
With COc1ccccc1CCC(=O)N1CC(c2nnc(-c3ccncc3)o2)C2(CCOCC2)C1 (configuration not stated) the Potency was inconclusive: 79.4 µM [inhibitor, partial curve, poor fit].
In the case of O=C(c1ccccc1F)N1CCC(C(=O)N2CCC(c3nc4ncccc4[nH]3)CC2)CC1, the Potency is reported as “inactive”.
For O=C(Nc1ccc(F)c(F)c1)C1CCN(C(=O)c2ncn3c2COC(c2ccccc2)C3)CC1 (configuration not stated), the Potency was “inactive”.
For COc1ccc(NC(=O)Cc2ccc(N(Cc3ccc(C)cc3)C(=O)c3ccco3)cc2)cc1, the Potency was inconclusive: 31.6 µM [inhibitor, full curve].
In the case of CCc1ccc(C(=O)N2CCC[C@H]2c2nc(-c3ccc(OC)c(OC)c3)no2)cc1, the Potency is reported as inconclusive: 14.1 µM [inhibitor, full curve].
In the case of Cn1ncc2c(C(=O)NCC3CC3)cc(-c3cccnc3)nc21, the Potency is reported as inconclusive: 22.4 µM [inhibitor, full curve, poor fit] and inconclusive: 79.4 µM [inhibitor, partial curve].
With COc1ccc(Cl)cc1C(=O)N1CCC(Oc2ccc3c(cnn3CCC(=O)O)c2)CC1 the Potency was inconclusive: 28.2 µM [inhibitor, full curve, poor fit].
With Cc1cnc(C(=O)N[C@@H]2CCC[C@@H]2C(=O)N2CCN(c3ccccn3)CC2)cn1 the Potency was “inactive”.
In the case of COc1ccccc1C(=O)N1CCCC(c2nnc3n2CCN(C2CCCC2)C3)C1 (configuration not stated), the Potency is reported as “inactive”.
For Cc1ccc(-c2ncc(NC(=O)c3cc(F)ccc3F)cn2)cc1, the Potency was “inactive”.
With COCCn1c(=O)c2c(n1Cc1ccccc1)CN(C(=O)Cc1ccc3c(c1)OCO3)CC2 the Potency was inconclusive: 12.6 µM [inhibitor, full curve, poor fit].
For Cc1cc(C(=O)N2C[C@@H]3CCCN4CCC[C@@H]([C@H]34)[C@H]2CCCC(=O)NCc2ccccc2)nn1C, the Potency was “inactive”.
For O=C(C1CCCC1)N1CCCCC12Cc1ccccc1NC2=O (configuration not stated), the Potency was “inactive”.
With COc1cc(C)c2c(c1C)C[C@H](C(C)C(=O)NCc1cccs1)CC2 (some centres not stated) the Potency was active: 35.5 µM.
For COc1ccc(N2CC(C(=O)NCCN3CCOC3=O)CC2=O)cc1Cl (configuration not stated), the Potency was “inactive”.
For Cc1cc(C(=O)N2CCCCC2)c2c(C3CCCN3)noc2n1 (configuration not stated), the Potency was “inactive”.
In the case of CCN(Cc1ccncc1)C(=O)CCC1CCN(S(=O)(=O)c2ccccc2)CC1, the Potency is reported as inconclusive: 28.2 µM [inhibitor, partial curve].
For O=C(NC1CCC(O)CC1)c1ccc(-c2ncc3cnc(-c4ccccc4)cn23)cc1 (configuration not stated), the Potency was inconclusive: 28.2 µM [inhibitor, full curve, poor fit].
For Cc1cccc(NC(=O)c2cc(-c3ccc[nH]3)n[nH]2)c1, the Potency was “inactive”.
In the case of O=C(c1ccc(F)cc1)N1CCCN(c2nc3ncccc3o2)CC1, the Potency is reported as “inactive”.
In the case of Cc1ccc(NC(=O)Nc2ccccc2)c(=O)n1CC(=O)NCC1CCCO1 (configuration not stated), the Potency is reported as inconclusive: 50.1 µM [inhibitor, single point].
For c1ccc(CCN2CCNc3cc(NCc4cccnc4)ncc3C2)cc1, the Potency was active: 50.1 µM.
With O=C(NCC1CCCCCC1)C1CCN(Cc2ccccc2-c2cccnc2)CC1 the Potency was inconclusive: 50.1 µM [inhibitor, partial curve, poor fit].
